From the supplement of paper PMC9446081
The campaign covered roughly 39,000 compounds. About 220 (0.56%) showed activity. The list shows a part of the results.

What follows are compounds tested on Escherichia coli K-12 BW25113 (assay: relative growth (OD600 normalised to plate interquartile mean) (fraction); higher = less growth inhibition, active = 0.2 or less). Conditions: 50 µM; LB; incubation time: overnight (16-24 h).
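Note: static incubation at 37 °C against the wild-type strain, values averaged over two biological replicates.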

Row | Compound | relative growth
1 | O=C(O)CNc1ccc(C(=O)O)cc1 | inactive: 0.998
2 | COc1ccc(NC(=O)N(C)C[C@@H]2OCCCC[C@@H](C)Oc3ccc(NS(=O)(=O)c4ccccc4)cc3C(=O)N([C@@H](C)CO)C[C@H]2C)cc1 | inactive: 1.02
3 | CCCNC(=O)Nc1ccc2c(c1)OC[C@@H](C)N(C(=O)C1CCOCC1)C[C@H](C)[C@H](OC)CN(C)C2=O | inactive: 0.994
4 | O=C(O)c1cc2cccnc2[nH]c1=O | inactive: 0.978
5 | O=C(O)CC(CC(=O)O)C(=O)O | inactive: 0.992
6 | C[C@H]1CN([C@@H](C)CO)C(=O)Cc2cc(NS(=O)(=O)c3cn(C)cn3)ccc2O[C@@H]1CN(C)S(=O)(=O)c1ccc(Cl)cc1 | inactive: 0.954
7 | COc1ccc(CN(C)C[C@@H]2OCCCC[C@@H](C)Oc3ccc(NC(=O)Nc4cccc5ccccc45)cc3C(=O)N([C@@H](C)CO)C[C@@H]2C)cc1 | inactive: 1
8 | CN1C(=O)c2cc(NS(=O)(=O)c3cccc(F)c3)ccc2OC[C@H]2O[C@@H](CC(=O)NCCN3CCCCC3)CC[C@H]21 | inactive: 0.99
9 | C[C@@H]1CN([C@H](C)CO)C(=O)c2ccccc2-c2ccccc2CO[C@H]1CN(C)C(=O)Nc1cccc(Cl)c1Cl | inactive: 1.01
10 | COc1cc(CO)cc(I)c1O[C@H]1C=C(C(=O)NCCO)C[C@@H](NCc2ccc(F)cc2)[C@@H]1O | inactive: 1
11 | CN(C)CC(=O)NS(=O)(=O)c1ccccc1 | inactive: 0.998
12 | COc1ccc(S(=O)(=O)Nc2ccc3c(c2)C(=O)N([C@H](C)CO)C[C@H](C)[C@H](CN(C)C(=O)NC2CCCCC2)OCCCC[C@H](C)O3)cc1 | inactive: 0.995
13 | C[C@H]1CN([C@@H](C)CO)C(=O)c2cc(NC(=O)NC3CCCCC3)ccc2O[C@H]1CN(C)C(=O)Nc1cccc2ccccc12 | inactive: 1.03
14 | C[C@@H]1CN([C@H](C)CO)C(=O)Cc2cc(NS(=O)(=O)c3ccc(Cl)cc3)ccc2O[C@H]1CN(C)C(=O)Nc1cccc2ccccc12 | inactive: 1.02
15 | C[C@@H]1CCCCO[C@@H](CN(C)C(=O)Nc2ccc3c(c2)OCO3)[C@H](C)CN([C@@H](C)CO)C(=O)c2cc(NS(=O)(=O)c3ccccc3)ccc2O1 | inactive: 1.03
16 | COc1cccc(S(=O)(=O)Nc2ccc3c(c2)[C@H]2C[C@@H](CC(=O)NCc4cccc(F)c4)O[C@H](CO)[C@H]2O3)c1 | inactive: 1.01
17 | CC(C)NC(=O)Nc1cccc2c1O[C@@H](CN(C)S(=O)(=O)c1ccccc1)[C@H](C)CN([C@H](C)CO)C2=O | inactive: 1
18 | Cc1ccc(S(=O)(=O)Nc2ccc3c(c2)C(=O)N([C@@H](C)CO)C[C@@H](C)[C@@H](CN(C)C(=O)c2ccccc2)OCCCC[C@H](C)O3)cc1 | inactive: 1.02
19 | C[C@H](CO)N1C[C@H](C)[C@@H](CN(C)Cc2ccc(Oc3ccccc3)cc2)Oc2ccc(NC(=O)C3CCCCC3)cc2CC1=O | inactive: 1
20 | COc1ccc(S(=O)(=O)Nc2cccc3c2O[C@H](CN(C)S(=O)(=O)c2cn(C)cn2)[C@@H](C)CN([C@H](C)CO)C3=O)cc1 | inactive: 1.01
21 | Nc1nc(=O)c2c([nH]1)NC[C@H](CNc1ccc(C(=O)N[C@@H](CCC(=O)O)C(=O)O)cc1)N2C=O | inactive: 0.993
22 | COc1ccc(NC(=O)N(C)C[C@H]2Oc3ncc(C#C[C@@H](C)O)cc3C(=O)N([C@H](C)CO)C[C@@H]2C)cc1 | inactive: 0.961
23 | Cc1ccc(S(=O)(=O)Nc2ccc3c(c2)C(=O)N([C@@H](C)CO)C[C@H](C)[C@H](CN(C)C(=O)c2ccccc2)OCCCC[C@@H](C)O3)cc1 | inactive: 0.983
24 | C[C@H]1CN([C@@H](C)CO)C(=O)Cc2cc(NC(=O)Nc3ccc4c(c3)OCO4)ccc2O[C@@H]1CN(C)C(=O)Nc1ccc(C(F)(F)F)cc1 | inactive: 1.03
25 | C[C@@H]1CN([C@H](C)CO)C(=O)Cc2cc(NC(=O)NC3CCCCC3)ccc2O[C@@H]1CN(C)S(=O)(=O)c1cn(C)cn1 | inactive: 0.996
26 | C[C@@H]1CCCCO[C@H](CN(C)CC2CC2)[C@@H](C)CN([C@H](C)CO)C(=O)c2cc(NS(=O)(=O)c3ccc(Cl)cc3)ccc2O1 | inactive: 0.996
27 | Cc1noc(C)c1S(=O)(=O)Nc1cccc2c1O[C@H](CN(C)Cc1ccc(-c3ccccc3)cc1)[C@H](C)CN([C@@H](C)CO)C2=O | inactive: 1.05
28 | CC(C)C(=O)NCc1ccnc(N(C)C)n1 | inactive: 0.993

Row | Compound | relative growth
29 | CC[C@H](NC(=O)[C@H](C)NC)C(=O)N1C[C@@H](O)C[C@H]1Cc1c(-c2[nH]c3cc(F)ccc3c2C[C@@H]2C[C@H](O)CN2C(=O)[C@H](CC)NC(=O)[C@H](C)NC)[nH]c2cc(F)ccc12 | inactive: 0.889
30 | C=CC[C@@H](CC(=O)N(CCO)Cc1ccccc1)C(=O)N[C@@H](COC(=O)[C@@H](CC=C)CC(=O)OC(C)(C)C)Cc1c[nH]c2ccccc12 | inactive: 1.07
31 | C[C@@H]1CN([C@H](C)CO)C(=O)c2cc(NC(=O)CCCN(C)C)ccc2O[C@H]1CN(C)Cc1ccc(C(=O)O)cc1 | inactive: 0.997
32 | CO[C@@H]1CN(C)C(=O)c2ccc(NS(C)(=O)=O)cc2OC[C@@H](C)N(C(=O)C2CCOCC2)C[C@@H]1C | inactive: 0.981
33 | C[C@@H]1CCCCO[C@H](CN(C)C(=O)NC2CCCCC2)[C@H](C)CN([C@@H](C)CO)C(=O)c2cc(NC(=O)Nc3ccccc3)ccc2O1 | inactive: 1.01
34 | Cc1noc(C)c1S(=O)(=O)N(C)C[C@H]1Oc2ccc(NS(C)(=O)=O)cc2CC(=O)N([C@H](C)CO)C[C@@H]1C | inactive: 1.02
35 | CN1C(=O)c2cc(NS(C)(=O)=O)ccc2OC[C@@H]2O[C@@H](CC(=O)N3CCOCC3)CC[C@@H]21 | inactive: 0.992
36 | C[C@H](CO)N1C[C@H](C)[C@H](CN(C)S(C)(=O)=O)Oc2c(NC(=O)Nc3ccc(C(F)(F)F)cc3)cccc2C1=O | inactive: 0.982
37 | C[C@@H]1CN([C@@H](C)CO)C(=O)c2cc(Br)cnc2O[C@@H]1CN(C)C(=O)Nc1ccc(F)cc1 | inactive: 1.01
38 | C[C@@H]1CCCCO[C@@H](CN(C)C(=O)Nc2ccccc2)[C@H](C)CN([C@@H](C)CO)C(=O)c2cc(NS(=O)(=O)c3cccs3)ccc2O1 | inactive: 1.02
39 | C[C@@H]1CN([C@@H](C)CO)C(=O)c2cc(C#Cc3ccccc3F)cnc2O[C@H]1CN(C)C(=O)Cc1ccncc1 | inactive: 0.976
40 | CC(C)CC(NC(=O)C(C)NC(=O)CNC(=O)C(NC=O)C(C)C)C(=O)NC(C)C(=O)NC(C(=O)NC(C(=O)NC(C(=O)NC(Cc1c[nH]c2ccccc12)C(=O)NC(CC(C)C)C(=O)NC(Cc1c[nH]c2ccccc12)C(=O)NC(CC(C)C)C(=O)NC(Cc1c[nH]c2ccccc12)C(=O)NC(CC(C)C)C(=O)NC(Cc1c[nH]c2ccccc12)C(=O)NCCO)C(C)C)C(C)C)C(C)C (stereo not given) [GRAMICIDIN (gramicidin A shown)] | inactive: 0.896
41 | COc1ccc(NC(=O)N(C)C[C@@H]2OCCCC[C@@H](C)Oc3ccc(NS(=O)(=O)c4ccc(OC)cc4)cc3C(=O)N([C@H](C)CO)C[C@H]2C)cc1 | inactive: 1.03
42 | C[C@@H]1CCCCO[C@H](CN(C)C(=O)Nc2ccc3c(c2)OCO3)[C@@H](C)CN([C@H](C)CO)C(=O)c2cc(NC(=O)Nc3ccccc3)ccc2O1 | inactive: 0.999
43 | C[C@@H]1CCCCO[C@H](CN(C)Cc2ccc(C(F)(F)F)cc2)[C@@H](C)CN([C@@H](C)CO)C(=O)c2cc(NC(=O)NC3CCCCC3)ccc2O1 | inactive: 0.973
44 | C[C@@H]1CN([C@@H](C)CO)C(=O)Cc2cc(NC(=O)Nc3ccc(C(F)(F)F)cc3)ccc2O[C@H]1CN(C)C(=O)NC1CCCCC1 | inactive: 0.981
45 | C[C@@H]1CN([C@@H](C)CO)C(=O)c2c(c3ccccc3n2C)-c2ccccc2CO[C@@H]1CN(C)C(=O)c1ccc(F)cc1 | inactive: 1.03
46 | C[C@@H]1CN([C@H](C)CO)C(=O)Cc2cc(NC(=O)Nc3ccc(C(F)(F)F)cc3)ccc2O[C@@H]1CN(C)C(=O)Nc1ccc(C(F)(F)F)cc1 | inactive: 1.04
47 | C[C@H](CO)N1C[C@H](C)[C@@H](CN(C)Cc2ccc(C(F)(F)F)cc2)Oc2ccc(NC(=O)Nc3ccccc3)cc2C1=O | inactive: 1.02
48 | COc1ccc(NC(=O)Nc2ccc3c(c2)C(=O)N([C@H](C)CO)C[C@@H](C)[C@@H](CN(C)Cc2ccc(Cl)c(Cl)c2)O3)cc1 | inactive: 1.03
49 | C[C@H](CO)N1C[C@H](C)[C@H](CN(C)Cc2ccc(C(=O)Nc3ccccc3N)cc2)Oc2ccc(NC(=O)Cn3cnnn3)cc2CC1=O | inactive: 0.959
50 | C[C@@H]1CN([C@@H](C)CO)C(=O)c2cc(NC(=O)CCC(F)(F)F)ccc2O[C@@H](C)CCCCO[C@H]1CN(C)Cc1ccncc1 | inactive: 0.965
51 | C[C@@H]1CN([C@H](C)CO)C(=O)c2cccc(NC(=O)c3cnccn3)c2O[C@@H]1CN(C)S(=O)(=O)c1ccc(Cl)cc1 | inactive: 1.02
52 | C[C@H]1CN([C@@H](C)CO)C(=O)c2cc(NS(=O)(=O)c3cn(C)cn3)ccc2O[C@@H]1CN(C)C(=O)Nc1ccc(F)cc1 | inactive: 0.995
53 | Cc1csc2c(N3CCC(Cn4cc(C(C)(C)N)nn4)CC3)ncnc12 | inactive: 0.995
54 | C[C@H]1CCCCO[C@@H](CN(C)S(=O)(=O)c2cn(C)cn2)[C@@H](C)CN([C@@H](C)CO)C(=O)c2cc(NC(=O)Nc3ccc(C(F)(F)F)cc3)ccc2O1 | inactive: 1.03
55 | COc1ccc(S(=O)(=O)Nc2ccc3c(c2)C(=O)N([C@H](C)CO)C[C@@H](C)[C@H](CN(C)S(=O)(=O)c2ccc(Cl)cc2)OCCCC[C@H](C)O3)cc1 | inactive: 1.03
